# This is one part of the list. Most values come without repeats; read them as rough.
# What was measured:
# A549 [1] = assay: cell-surface PD-L1 MFI ratio relative to radiation alone (isotype-subtracted); higher = higher PD-L1 surface expression; details: inducer: radiation 8 Gy; 10 µM; 24 h
# Protocol: (§1)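 A549 and H460 NSCLC cells were treated with each library drug at 10 uM, then with radiation (8 Gy) or cisplatin (4 uM), and incubated for 24 h. Cell-surface PD-L1 was measured by flow cytometry as an MFI ratio: (MFI drug+inducer - MFI isotype)/(MFI inducer alone - MFI isotype). Hits were defined as ratio < 0.75.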
# NCI-H460 [2] = assay: as above; details: inducer: radiation 8 Gy; 10 µM; 24 h
# Protocol: as §1
# NCI-H460 [3] = assay: cell-surface PD-L1 MFI ratio relative to cisplatin alone (isotype-subtracted); higher = higher PD-L1 surface expression; details: inducer: cisplatin 4 uM; 10 µM; 24 h
# Protocol: as §1
# A549 [4] = assay: as above; details: inducer: cisplatin 4 uM; 10 µM; 24 h
# Protocol: as §1
# 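Wherever cell-surface PD-L1 MFI ratio relative to radiation alone (isotype-subtracted) is given: surface PD-L1 on NSCLC cells stained with a PE-labelled anti-human PD-L1 antibody before flow cytometry, screening a library of roughly two hundred mostly kinase and epigenetic inhibitors.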
Structure (SMILES),cell-surface PD-L1 MFI ratio (A549 [1]),cell-surface PD-L1 MFI ratio (NCI-H460 [2]),cell-surface PD-L1 MFI ratio (NCI-H460 [3]),cell-surface PD-L1 MFI ratio (A549 [4])
COc1cc2ncnc(Nc3ccc(F)c(Cl)c3)c2cc1OCCCN1CCOCC1 [Gefitinib],inactive: 1.01,inactive: 1.32,inactive: 1.58,–
CC(C)(C)Cn1c(N)nc2ccc(-c3[nH]c(C(C)(C)C)nc3-c3ccc(F)cc3)nc21,inactive: 1.19,inactive: 1.06,inactive: 0.96,–
CS(=O)(=O)c1ccc(Oc2cc(F)cc(C#N)c2)c2c1[C@H](O)C(F)(F)C2,active: 0.54,inactive: 1.01,active: 0.613,active: 0.452
COCC[n+]1c2c(n(Cc3cnccn3)c1C)C(=O)c1ccccc1C2=O [YM155 (Sepantronium Bromide)],inactive: 0.97,active: 0.601,inactive: 1.46,inactive: 2.11
O=C1[C@H](Cc2ccc(O)cc2)N2C(=O)CCN(C(=O)NCc3ccccc3)[C@H]2CN1Cc1cccc2ccccc12,inactive: 1.17,inactive: 0.935,inactive: 1.51,–
NC(=O)c1cnc(NCCc2ccc(O)c(Cl)c2)nc1NCc1ccccc1,inactive: 0.781,active: 0.443,inactive: 0.936,inactive: 1.33
Nc1ncn([C@H]2C[C@H](O)[C@@H](CO)O2)c(=O)n1 [Decitabine],active: 0.685,inactive: 1.25,inactive: 1.19,active: 0.733
O=c1cc(CN2CCOCC2)occ1OCCCCCSc1ccnc2cc(C(F)(F)F)ccc12,active: 0.6,inactive: 1.27,inactive: 0.92,–
Nc1nc(NC2CC2)cc(-c2cccc(Cl)c2Cl)n1,inactive: 0.851,inactive: 0.958,inactive: 0.928,active: 0.494

# — the supplement of paper PMC8792480
